Measurements from PubChem BioAssay AID1919010 (Molecular Pharmacology Branch, DTP, NCI, 2023).
Not every entry of the source has a single result; some have several. Only these are listed. There may be further records. Values that stand side by side are repeated measurements (runs, samples, wells, individuals or studies). Additions like (4×) say how often a value occurs here.

Test system: Hs578T complex spheroid growth, percent test/control
Experiment: Anticancer human tumor Hs578T cell line growth inhibition [AhR];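 further: luminescent viability signal as a proxy for spheroid growth; spheroids exposed to agents for one week after three days of growth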
Conditions: for viability, T/C: stronger effect = lower value
From the text: Multicellular complex tumor spheroid response to aryl hydrocarbon receptor antagonists in combination with a variety of drugs and investigational agents in selected tumor cell lines
The current study was undertaken to assess response to aryl hydrocarbon receptor antagonists in combination with standard-of-care drugs and investigational agents in solid tumor complex spheroid models. Complex spheroids include a stromal component modeled by human endothelial cells (HUVEC) and fibroblasts modeled by human mesenchymal stem cells (MSCs). The concentration ranges selected for each drug and investigational agent were based upon clinically achievable concentrations if the clinical Cmax of the agent was known.
Compounds. The drugs and investigational agents: BAY 2416964 (NSC825713), GNF351 (NSC835774), CH-223191 (NSC835775), CPI-455 (NSC825282), aza-TdCyd (NSC777586), decitabine (NSC127716), belinostat (NSC758774), entinostat (NSC756642), pevonedistat (NSC761192), tazemetostat (NSC777109), talazoparib (NSC765396), olaparib (NSC753686), selinexor (NSC780203), nedisertib (M3814, NSC802822), bortezomib (NSC756655), venetoclax (NSC766270), doxorubicin (NSC123127), elimusertib (BAY189344, NSC800525), ceralasertib (AZD6738, NSC777638), TAK-243 (NSC785004), alisertib (NSC759677), etoposide (NSC141540), topotecan (NSC609699), eribulin (NSC707389), gemcitabine (NSC613327), carboplatin (NSC241240), cisplatin (NSC119875), and SN-38 (NSC673596) were obtained from the National Cancer Institute (NCI) Developmental Therapeutics Program Chemical Repository (32). The FDA-approved anticancer drug set is available from the Developmental Therapeutics Program at https://dtp.cancer.gov/organization/dscb/obtaining/available plates.htm. […] The stock solutions were prepared in dimethyl sulfoxide (DMSO, Sigma-Aldrich, St. Louis, MO, cat. D2650), except for the platinum compounds which were prepared in saline (Quality Biological, Gaithersburg, MD, cat. 114-055-101), at 800-fold the tested concentration and stored at -70 degrees C prior to their use. All drugs and investigational agents were tested over a range starting from a high concentration at or near the clinical Cmax and decreasing in half-log increments. If the clinical Cmax for an agent had not been determined, the highest concentration tested was 10 microM (Table 1).
Cell Culture. All cells were maintained in an incubator at 37 degrees C and 5% CO2 with 95% humidity. The PDC lines were cultured according to standard operating procedures established by the NCI PDMR (https://pdmr.cancer.gov). Briefly, all PDCs were thawed and cultured in Matrigel-coated flasks prepared with a working solution of 1X Ham's F-12 nutrient mix, without supplementation (Invitrogen, Waltham, MA, cat. 11765054), 100 U/mL penicillin-streptomycin (Invitrogen, cat. 15140122), and 2.5% Matrigel (Corning Inc., Corning, NY, cat. 354248) for the first three passages. All PDCs were cultured in complete DMEM/F-12 media containing advanced DMEM/F-12 (Invitrogen, cat. 12634028), 4.9% defined fetal bovine serum, heat inactivated (HyClone Laboratories Inc., Logan, UT, cat. SH30070.03HI), 389 ng/mL hydrocortisone (Sigma-Aldrich, cat. H4001), 9.7 ng/mL human EGF recombinant protein (Invitrogen, cat. PHG0313), 23.4 microg/mL adenine (Sigma-Aldrich, cat. A2786), 97.3 U/mL penicillin-streptomycin (Invitrogen, cat. 15140122), 1.9 mM L-glutamine (Invitrogen, cat. 25030081), and 9.7 microM Y-27632 dihydrochloride (Tocris Bioscience, Bristol, United Kingdom, cat. 1254). The PDCs were cultured in complete DMEM/F12 media without 10 microM Y-27632 dihydrochloride for at least two passages prior to the screen. The established cell lines NCI-H1341 and […] were cultured in DMEM/F-12, HEPES (Invitrogen, cat. 11330032), 5% defined fetal bovine serum (HyClone Laboratories Inc., cat. SH30070.03), ITS premix universal culture supplement [insulin (5 microg/mL), transferrin (5 microg/mL), and selenious acid (5 ng/mL)] […]

**Q.** Which results are given for Cc1ccccc1N=Nc1ccc(NC(=O)c2ccnn2C)c(C)c1?
**A.** viability, T/C (compound alone 0.316 µM): 96.9, 80.4, 101 (2×), 93.3, 100, 104 (3×), 93.4, 96.2, 92.3, 105, 108 (2×), 107, 99.7, 109, 110, 95.3%; viability, T/C (compound alone 3.16 µM): 101, 85.2, 82.4, 82.8, 82.6, 87.4, 91.3, 96.1, 83.7, 92, 87.6, 95.8, 109, 85.7, 91.1, 99.2, 95.6, 90.1, 83.3, 82%

**Q.** Nc1ccn(C2OC(CO)C(O)C2(F)F)c(=O)n1 (stereo not drawn) was tested. Which IC50 (compound alone) did it give?
**A.** 6.35 µM, > 10 µM, < 31.6 nM

**Q.** With CC(CO)NC(=O)c1cc(-c2ccc(Cl)cc2)nn(-c2cnn(C)c2)c1=O (stereo not drawn) as the compound, how does the viability, T/C (compound alone 0.1 µM) read?
**A.** 101, 95.9, 106 (3×), 104, 113 (2×), 111, 105, 110 (3×), 112 (2×), 119, 103 (2×), 125, 108, 117%

**Q.** And the viability, T/C (compound alone 3.16 µM)?
**A.** 113, 106 (2×), 96.4, 118 (3×), 96.9, 124, 115, 99.9, 101 (2×), 121, 104, 114, 111, 116, 110%

**Q.** What about the viability, T/C (compound alone 10 µM) of the same compound?
**A.** 95.7, 67.8, 88.5, 92 (2×), 110, 114 (2×), 101, 94.8, 107, 89.8, 82.1, 94.9, 103, 111, 102, 106, 108%

**Q.** Cc1cncc(-c2nc(NCCc3c[nH]c4ccccc34)c3ncn(C(C)C)c3n2)c1 was tested. Which viability, T/C (compound alone 1 µM) did it give?
**A.** 106 (2×), 104 (2×), 111 (4×), 89.7, 109, 101 (2×), 100, 102 (2×), 112, 99.2, 97.2, 103, 86%

**Q.** What about the viability, T/C (compound alone 3.16 µM) of the same compound?
**A.** 63.6, 72.7, 72.3, 70.3, 57, 70.5, 69.6, 56, 60.9, 66.3, 66.9, 57.2, 71.8, 72.4, 67.1, 68.3, 57.3, 53.3, 45.6, 51%
